From the supplement of paper PMC11417369
± gives the standard deviation of the averaged measurements. The list shows a part of the results.

Test system: PfAP2-EXP AP2 domain (GST-tagged)
Experiment: gcPBM binding intensity (ln(normalized median fluorescence intensity)); higher = stronger DNA binding
Method in brief: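 The binding buffer was 1× PBS containing 1% milk, 0.2 mg/ml BSA, 0.5% salmon testes DNA and 0.03% Triton X-100. In it, GST-tagged P. falciparum DNA-binding domains expressed in E. coli were applied for 1 h to an Agilent 4 × 180k array of primer-extended double-stranded 36-bp intergenic genomic probes plus negative controls. Binding intensity, read with Alexa488 anti-GST antibody and a 488 nm scan, is the highest Masliner-normalised natural-log median intensity across replicate spots of either probe orientation.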

In order of rising “gcPBM binding intensity (ln)” value:
1. GAAAAAAAAAAAAAAAGAAAATTCATATTTTTAATA [XGTACX_negctrl_site513]  7.71 ± 0.56
2. TACCAAAAAAAAAAAAAAAATTAAATAAATATGAAA [TGCATGCA_negctrl_site383]  8.04 ± 0.34
3. TAGATATATAGAATTACACACTTTTCTATAATATGA [CACACA_site6475]  8.05 ± 0.44
4. TTTATATATTTTTATCTTGATAATAATGTTTTAGAA [TGCATGCA_negctrl_site300]  8.08 ± 0.37
5. TACTGATATAATATAACCGTTTATGTGTATTTTTTA [XGTACX_negctrl_site81]  8.15 ± 0.48
6. CGTGGAAAAAAAAACACACACAAAAAAAAAAAAAAA [CACACA_site3997]  8.15 ± 0.45
7. TTTTGTTCTAATATGGGAACATAAATATTAAATATA [CACACA_negctrl_site1787]  8.22 ± 0.45
8. ATATAAATATTAATTACACACAAAAAAAAAAAAAAA [CACACA_site6671]  8.23 ± 0.45
9. CTCAAAAAATTTCATAGTACTTTAAAATACTATAAT [XGTACX_site1939]  8.24 ± 0.44
10. TAATAAATAAAAATAGAACACACATATGTTTTTTTT [CACACA_site9185]  8.28 ± 0.38
11. ATATATATTATAATAACACACATATATTATATTATA [CACACA_site406]  8.29 ± 0.34
12. AGTCTGAATAAAATTACACACATATACCTATAAATA [CACACA_site6929]  8.32 ± 0.5
13. TATAATAAAATTTTTACACACTTTAAAAAAAAAAAA [CACACA_site524]  8.33 ± 0.41
14. AATAAAATACAAAAATGTACAAATATAATATACATA [XGTACX_site279]  8.34 ± 0.28
15. ATACAAACAATTATTTGTACATAAAATTTTTTTTTT [XGTACX_site90]  8.36 ± 0.23
16. TTGAAGAATAAATATGCACACATGCATATATTTTTA [CACACA_site5840]  8.38 ± 0.25
17. TAATATAAAATGATAAATGAATGTGATCATTTTATA [CACACA_negctrl_site1034]  8.38 ± 0.36
18. ATGTATTTTTAAAAATATAAATTATGTAACTTGTGA [XGTACX_negctrl_site620]  8.38 ± 0.39
19. TATTTTACTTTAAAAATGGAAAAAAAAAAGAATATT [CACACA_negctrl_site1360]  8.38 ± 0.47
20. TGATACGTATTTATTTCACACACGTTAAAAAAATAA [CACACA_site3914]  8.38 ± 0.3
21. TTATTTCTGAATATTTTTTTTTTTTCTTCTTTTTTA [CACACA_negctrl_site815]  8.38 ± 0.5
22. AGATATTTTTCTTAAGTACACACTAAATAGAAACTA [CACACA_site44]  8.4 ± 0.45
23. TTTATTTTAACTTGTTCACACATTTGAATAAATAAA [CACACA_site5064]  8.4 ± 0.45
24. ATATAAATAAACAACTTTGTTGGCCTTCCAAAATAT [CACACA_negctrl_site1181]  8.44 ± 0.51
25. GAAAGAAGCATAAATGTACACACATATTTATATATT [CACACA_site8368]  8.44 ± 0.39
26. CATATATATTTTATATGTACATATATATTTTATATA [XGTACX_site8665]  8.45 ± 0.25
27. TATGTTAAAAAAAAAAAAAAGAAAAAAATAAAAGGA [CACACA_negctrl_site119]  8.45 ± 0.42
28. CTAACACTAATTTTTTGTACACAATATGTAAATAAA [XGTACX_site6424]  8.45 ± 0.33
29. AACAACCAAACGCACACACACAAAAAAAAAAATATA [CACACA_site6326]  8.46 ± 0.47
30. AATAAGAAAACAAATGCACACCATTTATATAGATTA [CACACA_site8261]  8.47 ± 0.21
31. TAATGTAATACATATTGTACACATACATATATATTT [XGTACX_site7531]  8.47 ± 0.33
32. TTTTTTTTTTTCAGTTGTACATTGGGAAAATATATA [XGTACX_site4416]  8.48 ± 0.47
33. GTCCCTATAAGGGGAACACACATAAATGAATATATA [CACACA_site1024]  8.48 ± 0.5
34. CAGTAGTATATACTATGTACATATTTATATTATATT [XGTACX_site4964]  8.5 ± 0.4
35. TTCAAATATATGTTTTCACACACAAAAGAAATGAAA [CACACA_site8671]  8.51 ± 0.41
36. AAAAAAAAAAAAAAATGTACATATATATAAATAAAA [XGTACX_site5574]  8.51 ± 0.45
37. GGGTATACCAATATAACACACATATATCTATAATAT [CACACA_site6348]  8.51 ± 0.4
38. CTTTATACATGACATAGTACCCATTTTAGATTTGAA [XGTACX_site5240]  8.52 ± 0.38
39. TATGGTTTTAAAAAATGTACGCAAGTGCGTTAATTT [XGTACX_site3945]  8.57 ± 0.042
40. TTTCTATATAGATTTGCACACATAAAAATGCTTATA [CACACA_site2390]  8.58 ± 0.33
41. TAATAATATAAATATGCACACAAATTATTACCCAAA [CACACA_site8805]  8.59 ± 0.21
42. GGGTTAATATTTACTACACACACTTAAAATATGTAT [CACACA_site47]  8.59 ± 0.47
43. TTATATATTTATATATGTACACATTTTACCATTTTT [XGTACX_site2142]  8.59 ± 0.34
44. ATATTTATATATTGCACACAAAAAAAAAAAAAAATC [CACACA_site1629]  8.59 ± 0.085
45. ATATATATAATTTGTACACACAAATATGCATATATA [CACACA_site3432]  8.6 ± 0.26
46. TATATTCATAATATTACACACGTTCATTTATTTTAA [CACACA_site2031]  8.6 ± 0.42
47. ATGAATCTTTTAAAAAGTACATGTGAAAAAAATAAA [XGTACX_site49]  8.63 ± 0.3
48. TTAAAATGTTGTAACGTGCACATTTTGTGGAAATCA [GTGCAC_site9559]  8.64 ± 0.3
49. AAATATAATTAATGATGTACACTTATAGATATTGAT [XGTACX_site8435]  8.65 ± 0.32
50. AAGGGAAAAATATGGTTGCACTAAAAATATGTAATT [GTGCAC_site9605]  8.65 ± 0.31
51. TTTTTTTGTTAAAAGGTGCTAATATATATAAGTGCT  8.66 ± 0.17
52. TAATTTTTTAAATTTAAACACACATTTTGTATATGT [CACACA_site8479]  8.66 ± 0.49
53. AATAAAAAAAAACGCACACACAAATATATTCCATTC [CACACA_site1224]  8.69 ± 0.54
54. ACATACTCAAATAGCACACACATAAATAAAAATGTA [CACACA_site3864]  8.69 ± 0.49
55. ATTACAAAAATATATAAACACACAAATATAATATAT [CACACA_site8962]  8.69 ± 0.45
56. ACATTTATATATAATTGTACCCTACATTCTCTTTTT [XGTACX_site189]  8.7 ± 0.39
57. ATAAAATAAAACAACACACACGAATGTATAAATATA [CACACA_site4643]  8.7 ± 0.61
58. TATATTAATTATAAGACACACATATAGTAATAGAAA [CACACA_site2056]  8.71 ± 0.38
59. TATATATATAAATGAATGCACTTTAGAAAAAAGTAC  8.72 ± 0.13
60. AATATAAATAAACACACACACATATATATATATATT [CACACA_site2906]  8.72 ± 0.37
61. CATGTGTTCTATATTTATGTCTAACTTTTTAATTAA [CACACA_negctrl_site904]  8.73 ± 0.35
62. AAACAAATAGACACTTGTACGTAAGTAAATAATTAA [XGTACX_site6157]  8.74 ± 0.43
63. TTATAATTGTAAGGTAGTACATATAAATCAAATAAT [XGTACX_site7190]  8.74 ± 0.35
64. TTATATGCATAAAAAGGTACACATATATAAATAAAT [XGTACX_site6894]  8.76 ± 0.42
65. TTAATAAAACTAACACGTACACATATATAATATTAT [XGTACX_site3260]  8.77 ± 0.44
66. AAATAATTTATATATTGTACAAATATTAAATGCGAA [XGTACX_site3390]  8.81 ± 0.36
67. TTTTTTTTTTTTACATGTACATATGAATTATAATAT [XGTACX_site5016]  8.82 ± 0.45
68. TTTGTGTAGGTGTGTAGTACATATAACTTATAACAT [XGTACX_site7885]  8.87 ± 0.29
69. AAAAATATATAAACACGTACACACACATATATGTAT [XGTACX_site7436]  8.88 ± 0.54
70. TATTCTCGTTCTCATACACACAAAATATACATACAC [CACACA_site7278]  8.89 ± 0.45
71. ACATATTTTTACTTTTGTACATATTTTTTAATTTTC [XGTACX_site640]  8.91 ± 0.32
72. AAATTTATAAAGAACACACACATATAAATATAAATA [CACACA_site6174]  8.93 ± 0.49
73. GAGTGAAATATGCAAACACACACGAGAAAAATGTAT [CACACA_site3196]  8.96 ± 0.52
74. ATTGTCATCATTATATGTACGTAAAAGAATATAGAT [XGTACX_site3117]  8.98 ± 0.39
75. ACATTTAAAATTTATGCATGTGGTGTTTTGTATATA [TGCATGCA_site534]  8.98 ± 0.36
76. GGGTTGATATATATTTGTACATATTATTATTTATTA [XGTACX_site7116]  9.11 ± 0.66
77. ATATATATTTAAAACGCATGCCTTGTTATATATATA [TGCATGCA_site624]  9.11 ± 0.37
78. ATGGGTTAGGCGTGTACACAATTGTATGGTTTAATA [CACACA_site4812]  9.12 ± 0.46
79. GTATATTACATAAAATGTACATAAAAAGCGGAAAAG [XGTACX_site6905]  9.19 ± 0.34
80. ATTTTTACATAGGAAGCATGCATATTTTAAAAATAA [TGCATGCA_site1046]  9.22 ± 0.5
81. AATGGAAAAGGTAGTTGTACAACATGTTAAAATGGT [XGTACX_site1312]  9.3 ± 0.44
82. TTTTCTCTAAAAAGGTGTACAACTAATAATGCACTG [XGTACX_site6074]  9.35 ± 0.75
83. ATATATATATAATATTGTACGAAAAAAAATAAAAAA [XGTACX_site974]  9.405 ± 0.035
84. ATTTATTTCTTGTTAGTGCACTTTCTTTGGTAAAAT  9.49 ± 0.014
85. ATATATATATATTATGTGCGCATATACCATTTTAAT [GTGCAC_site9575]  9.69 ± 0.31
86. TATATATATATGTAATGTACATAAATTTTATACCTT [XGTACX_site6991]  9.93 ± 0.23
87. TATATATATATATATTGTACGAACCTTTTTTTTTTT [XGTACX_site4169]  10.1 ± 0.18
88. TATACAGATGGACACACACACATATATATATATATA [CACACA_site5272]  10.2 ± 0.3
89. TAATAAAATGTACACGCATGCAATAGAATATAAAGT [TGCATGCA_site905]  10.3 ± 0.79
